Measurements taken from patent US11178870B2 (priority 2017, dated 2021).

How the values were obtained:
Magnaporthe grisea = format: in vivo; details: class of control value, Table 7
Phytophthora infestans = format: in vivo; details: class of control value, Table 7
[1] = system: Colletotrichum orbiculare; details: 250 ppm spray, 2.5 ml/pot; investigated 6 to 10 days after inoculation

Row | Compound | Test A control value (blast on rice) (Magnaporthe grisea) | Test F control value (late blight on tomato) (Phytophthora infestans) | Test H control value (anthracnose on cucumber) [1]
1 | CCn1c(-c2ccccc2C(F)(F)F)c(-n2ncc(C)c2Cl)cc(Cl)c1=O [Compound 375] | H (H shows the control value more than 50%) | L (L shows the control value of 50% or less) | H (H shows the control value more than 50%)
2 | CCn1c(-c2c(F)cccc2Cl)c(-n2cc(F)cn2)cc(Cl)c1=O [Compound 379] | H (H shows the control value more than 50%) | L (L shows the control value of 50% or less) | –
